From PMC5391139, “Ataxin‐3 consolidates the MDC1‐dependent DNA double‐strand break response by counteracting the SUMO‐targeted ubiquitin ligase RNF4” (The EMBO Journal, 2017)

Molecular target: T1, recombinant ataxin‐3 (UniProt P54252 1-361)
T1 construct: the DUB assay names 'recombinant GST-ataxin-3'; It may be the same GST fusion; also called GST‐ataxin‐3 (in the DUB assay); source: recombinant
Test: pull-down; recombinant SUMO1 immobilized on agarose beads incubated with 1 ug recombinant ataxin-3 for 2 h at 4°C; buffer A (50 mM Tris pH 7.5, 150 mM NaCl, 1 mM DTT, 0.5% NP-40); six washes
Conditions: both partners purified

B1: recombinant SUMO1 immobilized on agarose beads (natural protein)
chain: not shown
notes: SUMO1, the ubiquitin-like modifier; In the DUB assay a soluble recombinant His-SUMO1 (Enzo Life Sciences) was used instead of the beads; also called SUMO1 beads; source: bought: Enzo Life Sciences (recombinant, immobilized on agarose beads)
B1: binds.
